# Laboratory results: the supplement of paper PMC4604168 (melanoma cell lines)
# The other results are listed elsewhere or left out. Single values are uncertain, as repeats are few or missing.
# Assays:
# Experiment in all cases: cell count relative to DMSO control; melanoma cells; higher = more viable cells
# Details in all cases: library dose: low library concentration; 72 h
# [1] = system: WM115
# [2] = system: WM1716
# [3] = system: WM1745
# [4] = system: WM3526
# [5] = system: WM3619
# [6] = system: WM451Lu
# 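Also: cell number obtained by counting DAPI-stained nuclei in high-throughput microscope images with image analysis software, screen run in 1,536-well plates.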
Structure (SMILES),cell count [1] [%],cell count [2] [%],cell count [3] [%],cell count [4] [%],cell count [5] [%],cell count [6] [%]
"Cc1cn(-c2cc(NC(=O)c3ccc(C)c(Nc4nccc(-c5cccnc5)n4)c3)cc(C(F)(F)F)c2)cn1 [nilotinib] + OCCn1cc(-c2cnc3nnn(Cc4ccc5ncccc5c4)c3n2)cn1 [PF04217903] (first compound 0.2 µM, partner dose 1 µM)",110,105,115,97.6,103,92.2
"Cc1cc(Nc2cc(N3CCN(C)CC3)nc(/C=C/c3ccccc3)n2)n[nH]1 + CCCCCCCCCCCC1=C(O)C(=O)C=C(O)C1=O [Embelin] (first compound 0.04 µM, partner dose 1.2 µM)",99.5,108,82.4,84.1,101,125
"Cn1c(=O)n(-c2ccc(C(C)(C)C#N)cc2)c2c3cc(-c4cnc5ccccc5c4)ccc3ncc21 + CC(C)C[C@H](NC(=O)[C@H](Cc1ccccc1)NC(=O)c1cnccn1)B(O)O [Bortezomib] (first compound 0.004 µM, partner dose 0.001 µM)",88.3,48.8,89.4,87.5,30.9,96.2
"CC(C)C[C@H](NC(=O)[C@H](Cc1ccccc1)NC(=O)c1cnccn1)B(O)O [Bortezomib] + CO[C@H]1C[C@@H]2CC[C@@H](C)[C@@](O)(O2)C(=O)C(=O)N2CCCC[C@H]2C(=O)O[C@H]([C@H](C)C[C@@H]2CC[C@@H](OCCO)[C@H](OC)C2)CC(=O)[C@H](C)/C=C(\C)[C@@H](O)[C@@H](OC)C(=O)[C@H](C)C[C@H](C)/C=C/C=C/C=C/1C [everolimus] (first compound 0.001 µM, partner dose 0.02 µM)",68.1,25.2,44.3,65,36.8,86
"CC(C)C[C@H](NC(=O)[C@H](Cc1ccccc1)NC(=O)c1cnccn1)B(O)O [Bortezomib] + Cn1cncc1[C@@](N)(c1ccc(Cl)cc1)c1ccc2c(c1)c(-c1cccc(Cl)c1)cc(=O)n2C [tipifarnib] (first compound 0.001 µM, partner dose 0.01 µM)",84.8,31.7,53.2,70.3,21.6,66.4
"CC(C)C[C@H](NC(=O)[C@H](Cc1ccccc1)NC(=O)c1cnccn1)B(O)O [Bortezomib] + Oc1nc(-c2ccc(C(F)(F)F)cc2)nc2c1CSCC2 [XAV939] (first compound 0.001 µM, partner dose 2 µM)",93.6,43.5,91.9,96.6,85.7,95.6
"Cn1c(=O)n(-c2ccc(C(C)(C)C#N)cc2)c2c3cc(-c4cnc5ccccc5c4)ccc3ncc21 + COc1cc(Nc2ncc(F)c(Nc3ccc4c(n3)NC(=O)C(C)(C)O4)n2)cc(OC)c1OC [Tamatinib] (first compound 0.004 µM, partner dose 0.4 µM)",69.1,65.2,70,72.6,86.2,98.9
"Cc1cn(-c2cc(NC(=O)c3ccc(C)c(Nc4nccc(-c5cccnc5)n4)c3)cc(C(F)(F)F)c2)cn1 [nilotinib] + Cc1cc(N2CCOCC2)cc2[nH]c(-c3c(NC[C@@H](O)c4cccc(Cl)c4)cc[nH]c3=O)nc12 [BMS536924] (first compound 0.2 µM, partner dose 0.2 µM)",88.5,110,63.6,80.7,114,127
"CC(C)C[C@H](NC(=O)[C@H](Cc1ccccc1)NC(=O)c1cnccn1)B(O)O [Bortezomib] + NCC(=O)Nc1ccc(-n2nc(C(F)(F)F)cc2-c2ccc3c(ccc4ccccc43)c2)cc1 [OSU03012] (first compound 0.001 µM, partner dose 1 µM)",90.8,44.7,47.5,46.2,16.2,59.3
"Cc1cn(-c2cc(NC(=O)c3ccc(C)c(Nc4nccc(-c5cccnc5)n4)c3)cc(C(F)(F)F)c2)cn1 [nilotinib] + C[C@]1(O)C[C@@H](c2nc(-c3ccc4ccc(-c5ccccc5)nc4c3)c3c(N)nccn32)C1 [OSI906] (first compound 0.2 µM, partner dose 0.4 µM)",98.7,83.5,57,85,89.2,93.5
"Cc1cc(Nc2cc(N3CCN(C)CC3)nc(/C=C/c3ccccc3)n2)n[nH]1 + C=CCn1c(=O)c2cnc(Nc3ccc(N4CCN(C)CC4)cc3)nc2n1-c1cccc(C(C)(C)O)n1 [MK1775] (first compound 0.04 µM, partner dose 0.02 µM)",71,83.9,72.6,86,75.8,91.6
